In PubChem BioAssay AID485281 (National Center for Advancing Translational Sciences (NCATS), 2010):
Out of some 350,000 compounds screened, about 260 (0.074%) were called active. The inconclusive results got no clear call from the source; some entries with a clear call stand among them for comparison. The call rests on the fitted dose curve; in most records, active means well fitted inhibition curve with a large enough effect; inconclusive means small, poorly fitted or top-dose-only effect; inactive means no such curve, though single readings can be large or run the other way. Where the call is inconclusive, the potency comes from a doubtful curve fit.

target: Ferritin light chain (Equus caballus) (UniProt P02791); assay: qHTS Assay for Identification of Novel General Anesthetics; conditions: apoferritin/1-aminoanthracene competitive binding, fluorescence; activity change, negative = displacement: at 77.5 µM (top of the series); further: nearly all actives have a fitted effect of over 20% in size
Procedure, shortened: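 Horse-spleen apoferritin (10 uM) was mixed with 50% saturated 1-aminoanthracene in PBS, exposed to compounds for 10 min at room temperature, and read for fluorescence (ex 380 nm, em 535 nm). Competitive displacement was fitted with a four-parameter Hill equation.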
On the % scale 0 is the no-effect control and ±100 the full control effect; potency means the concentration at half of the fitted maximal effect; tags describe the fitted curve by direction and shape.

Chain of UniProt P02791 (P02791 whole entry, looked up): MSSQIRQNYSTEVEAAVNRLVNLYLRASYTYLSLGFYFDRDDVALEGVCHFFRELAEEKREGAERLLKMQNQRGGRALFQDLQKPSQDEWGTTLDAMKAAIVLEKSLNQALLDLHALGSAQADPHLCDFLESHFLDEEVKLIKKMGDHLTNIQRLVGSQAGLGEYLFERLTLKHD

Potency, inconclusive:
CN(C)c1ccc(/C=[N+](\[O-])C2SC(=S)N(C)C2(C)C)cc1 (stereo not drawn) 25.1 µM [inhibitor, partial curve]
CCOc1cccc2sc(NN)nc12 39.8 µM [inhibitor, partial curve]
COc1ccc(-c2nnc(SCC(=O)NCCC(C)C)nc2-c2ccc(OC)c(OC)c2)cc1OC 50.1 µM [inhibitor, single point]
COc1ccccc1N1CCN(C(=O)CCCN2C(=O)c3cccc4cccc(c34)C2=O)CC1 25.1 µM [inhibitor, partial curve, poor fit]
COc1ccc(C(=O)COC(=O)CCCn2c(=O)oc3ccccc32)cc1 31.6 µM [inhibitor, partial curve]
Cc1cc(NC(=O)COc2ccc(C(C)(C)C)cc2)no1 10 µM [inhibitor, partial curve]
Cc1cccc(C)c1-n1c(C)cc(/C=N\NC(=O)CC(=O)NC2CCCCC2)c1C 50.1 µM [inhibitor, single point]
COc1ccc(C)cc1NC(=O)C12CCC(C)(C(=O)O1)C2(C)C (stereo not drawn) 35.5 µM [inhibitor, partial curve]
Cc1ccc(-c2ccc(=O)n(CC(=O)NCCc3ccccc3)n2)cc1 11.2 µM [inhibitor, full curve]
CC(C)C[C@@H]1NC(=O)[C@H](C(C)C)NC(=O)c2cc([N+](=O)[O-])cc(I)c2NCC[C@@H](C(N)=O)NC1=O 20 µM [inhibitor, partial curve]
Cc1cccc(/C=C/c2onc(C)c2S(=O)(=O)N2CCC(C(=O)N3CCCCC3)CC2)c1 11.2 µM [inhibitor, full curve]
CCc1ccccc1NS(=O)(=O)c1ccc2[nH]cc(C(=O)N(CC)Cc3ccccc3)c(=O)c2c1 56.2 µM [inhibitor, single point]
N#Cc1c(-c2ccccc2)nc(SCC(=O)Nc2ccccc2)[nH]c1=O 28.2 µM [inhibitor, single point]
CCCn1c(C)cc(C(=O)COC(=O)CN=C2NS(=O)(=O)c3ccccc32)c1C 28.2 µM [inhibitor, partial curve]
COc1ccc(C(=O)c2cnc3ccccc3c2-c2ccccc2)cc1 31.6 µM [inhibitor, partial curve]
CC1CC(C)CN(C(=O)CSc2ccsc2[N+](=O)[O-])C1 (stereo not drawn) 28.2 µM [inhibitor, single point]
Cc1ccc2c(CNCc3ccc(C)o3)c(C(=O)O)n(Cc3ccccc3C)c2c1 31.6 µM [inhibitor, single point]
CCN=c1scc(C)n1/N=C/c1ccc(O)c(O)c1O 28.2 µM [inhibitor, partial curve]
O=C1C2CC=CCC2C(=O)N1Nc1ccccc1 (stereo not drawn) 22.4 µM [inhibitor, partial curve]
Cc1ccccc1Nc1nnc(SCC(=O)NC(=O)NCc2ccco2)s1 28.2 µM [inhibitor, partial curve, poor fit]
CCCc1ccc(O)c(N=Cc2cc(Br)cc(OCC)c2O)c1 31.6 µM [inhibitor, single point]
COc1ccc2nc(N(CCN(C)C)C(=O)c3ccc(C(=O)c4ccccc4)cc3)sc2c1 22.4 µM [inhibitor, partial curve]
O=C(c1cc2ccccc2oc1=O)N(Cc1ccc2c(c1)OCO2)Cc1ccco1 44.7 µM [inhibitor, single point]
CCC(=O)Nc1ccc(NC(=O)C23CC4CC(CC(C4)C2)C3)cn1 50.1 µM [inhibitor, single point]
O=C(/C=C1\NC2(CCCC2)Cc2ccccc21)C(=O)N/N=C/c1ccc(O)c(O)c1 12.6 µM [inhibitor, partial curve]
Nc1nc(Cl)cc(Sc2ccc3ccccc3c2)n1 5.62 µM [inhibitor, full curve]
NC(=S)NN=C(Cc1ccccc1)Cc1ccccc1 35.5 µM [inhibitor, single point]
Cc1ccc(S(=O)(=O)c2nc(C)oc2N2CCOCC2)cc1 31.6 µM [inhibitor, partial curve]
COc1ccc(NC(=O)c2cccc(NS(=O)(=O)c3ccccc3)c2)cc1 28.2 µM [inhibitor, partial curve]
Cc1ccc(C)c(OC(=O)c2cccc(S(=O)(=O)N3CCN(C)CC3)c2)c1 35.5 µM [inhibitor, partial curve]

Activity change, negative = displacement, inactive:
COCC(C)NC(=O)CCS(=O)(=O)c1nc(-c2ccc(OC)cc2)cc(C(F)(F)F)n1 (stereo not drawn) 3.59%
c1ccc(CNc2nc(-c3ccccn3)nc3ccccc23)cc1 -7.44%
CCCCn1cnc2cc(NCc3ccccc3Cl)ccc21 50.6%
CC(=O)c1ccc(OCc2cc(C(=O)N(C)Cc3ccccn3)no2)cc1 -23.3%
Nc1nc2c(C(=O)N3CCOCC3)nnn2c2ccccc12 9.44%
Cn1c(CCNC(=O)c2ccco2)nc2cc(NC(=O)c3ccccc3Cl)ccc21 -1.11%
COc1ccc(CCNC(=O)c2nc(-c3ccc(Cl)cc3)n3c2CCCCC3)c(OC)c1 34.7%
CCOc1ccc(-c2ccc(/C=C3/C(=N)N4C(C)=CSC4=NC3=O)o2)c([N+](=O)[O-])c1 -8.04%
COc1cccc(N2CCN(Cc3cccnc3)CC2)c1 -9.37%
Cc1oc(-c2ccc(C(=O)NCc3ccccc3)cc2)nc1CN1CCc2ccccc21 6.39%
COc1ccccc1CNC(=O)c1cc2c(=O)oc3ccc(C)cc3c2s1 -7.07%
COc1ccc(C(=O)Nc2ccc(C(F)(F)F)n(C)c2=O)cc1 -7.35%
Cc1cc(C)c(OCCCCN(C)Cc2ccccc2)c(C)c1 -9.95%
